# Assay results from PubChem BioAssay AID652104 (National Center for Advancing Translational Sciences (NCATS), 2013).
# Hit rate of the full screen: of about 410,000 compounds, about 7,200 (1.8%) were called active. This list was built around the results that the source calls inconclusive (neither active nor inactive); the mix of calls is not that of the screen. Calls follow the shape of the dose curve; as a rule, active = well fitted activation curve with a large enough effect; inconclusive = small, poorly fitted or top-dose-only effect, or another doubt; inactive = no such curve, though single readings can be large or run the other way. No potency is given beside an inconclusive call; the fits are too rough.
# Experiment: qHTS of TDP-43 Inhibitors; also: nearly all actives have a fitted effect of over 50% in size; as to growth rescue (activation): % of control where 0% means no effect
# Conditions: TDP-43 expressing yeast growth rescue, BacTiter-Glo, 24 h; growth rescue (activation): at 46.1 µM (top of the series) unless noted
# Outline: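 Cell-based yeast growth screen: TDP-43 expression induced in galactose, inoculum OD600=0.02 after raffinose pregrowth to mid-log. Read-out BacTiter-Glo luminescence at 24 hr, 30 deg C; inhibition of toxicity seen as signal increase.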
# Potency is read from the fitted curve at half-maximal effect; tags tell the direction and shape of the fitted curve.
Structure (SMILES),Potency,growth rescue (activation)
COc1ccc(C(=S)N2CCOCC2)cc1OC(=O)c1ccc([N+](=O)[O-])cc1[N+](=O)[O-],active: 22.4 µM,–
COCCNc1nc(-c2ccccc2CO)c2sc(-c3ccccc3)cc2n1,"inconclusive [activator, single point]",–
CC(=O)OC1c2ccccc2C(=O)N1c1ccccc1C (stereo unspecified),"inconclusive [activator, single point]",–
CC(C)Cn1c(=O)c2ccccc2n2c(CCC(=O)N3CCN(c4cccc(Cl)c4)CC3)nnc12,"inconclusive [activator, partial curve]",–
Cc1nn(-c2ccccc2)c(N)c1Sc1cccc([N+](=O)[O-])c1,"inconclusive [activator, single point]",–
COCCCN(Cc1ccco1)C(=O)c1cc2c(s1)-c1ccccc1OC2,active: 22.4 µM,–
O=C1CC(Sc2nnnn2-c2ccccc2)C(=O)N1c1cccc(Cl)c1 (stereo unspecified),"inconclusive [activator, partial curve]",–
CCCCCC1CC(CC(=O)Nc2ccc([N+](=O)[O-])cc2)OC1=O (stereo unspecified),inactive,–
CO/N=C/c1ccc(Oc2ccc(C)cc2)c([N+](=O)[O-])c1,"inconclusive [activator, single point]",–
COc1ccccc1-c1noc(-c2ccc(N3CCOCC3)c([N+](=O)[O-])c2)n1,inactive,–
Cc1ccnc(NC(=O)c2ccc(COc3c(F)c(F)cc(F)c3F)o2)c1,"inconclusive [activator, full curve]",–
C[C@@H](CN=[N+]=[N-])CN1CC[C@H](C(C)(C)C)CCC1=O,"inconclusive [activator, partial curve]",–
COc1ccc(S(=O)(=O)n2nc(C)c(S(=O)(=O)N3CCCCC3)c2C)cc1,inactive,–
Cn1c(NCc2ccccc2)nc2cc(-c3ccccc3)sc2c1=O,"inconclusive [activator, partial curve]",–
Cc1c(C)c2ccc(OCC(=O)N3CC[C@@]4(O)CCCC[C@H]4C3)c(C)c2oc1=O,"inconclusive [activator, single point]",–
COCCNC(=O)C1(C)CCCN(C(=O)c2cccc(OC(F)(F)F)c2)C1 (stereo unspecified),"inconclusive [activator, single point]",–
O=C(Nc1ccc2c(c1)C(=O)N(C1CCCCC1)C2=O)C1CCCO1 (stereo unspecified),"inconclusive [activator, single point]",–
COc1c(F)c(F)c(-c2csc(N)n2)c(F)c1F,"inconclusive [activator, partial curve]",–
CCCC(=O)Nc1c(O)c2ccccc2[nH]c1=O,"inconclusive [activator, partial curve]",–
CCCCc1c(C)c2ccc(OCC(C)=O)cc2oc1=O,"inconclusive [activator, single point]",–
O=C1CC(N2CCC(c3nc4ccccc4o3)CC2)C(=O)N1c1ccc(Cl)c(C(F)(F)F)c1 (stereo unspecified),"inconclusive [activator, single point]",–
COc1ccccc1CNC(=O)CN1C(=O)CCc2cc(S(=O)(=O)N3CCCCC3)ccc21,"inconclusive [activator, full curve, poor fit]",–

Structure (SMILES),Potency,growth rescue (activation)
COc1ccc(C(=O)NCCn2cc(SCc3cccc(F)c3)c3ccccc32)cc1OC,inactive,–
COc1cccc2cc(C(=O)NC3CC4CCC3C4)oc12 (stereo unspecified),"inconclusive [activator, single point]",–
Fc1ccc(-n2c(Cc3ccccc3)nnc2SCc2nc(-c3cccs3)no2)cc1,"inconclusive [activator, single point]",–
CCOc1ccccc1-c1nc(-c2ccc(C)nc2OC)no1,active: 20 µM,–
Cc1ccc(S(=O)(=O)Nc2ccccc2O)cc1,"inconclusive [activator, single point]",–
COc1cc(-c2nnc(SCc3cc(=O)oc4cc(C)ccc34)o2)cc(OC)c1OC,"inconclusive [activator, single point]",–
O=C(COc1nsnc1N1CCOCC1)Nc1ccc(Cl)cc1,"inconclusive [activator, partial curve]",–
CCOc1ccccc1/C=N/n1c(C2CCCCC2)n[nH]c1=S,"inconclusive [activator, partial curve]",–
CN1/C(=C/C(=O)CSc2ccccc2C(=O)O)C(C)(C)c2ccccc21,active: 20 µM,–
C/C(=N\NC(=O)c1ccccc1F)c1ccc(C#N)cc1,"inconclusive [activator, partial curve]",–
COc1cccc(NC(=O)C2(C)CCN2Cc2ccc(SC)cc2)c1 (stereo unspecified),"inconclusive [activator, full curve, poor fit]",–
Cc1c(C(=O)NC(C)c2ccccc2)sc2ncnc(N(C)C3CCCCC3)c12 (stereo unspecified),"inconclusive [activator, partial curve]",–
Cc1[nH]n(-c2ccccc2)c(=O)c1C=NCCc1ccccc1,"inconclusive [activator, partial curve, poor fit]",–
COc1ccc(CN2CCNC(=O)C2CC(=O)NC2CCCCC2)c(OC)c1 (stereo unspecified),"inconclusive [activator, partial curve, poor fit]",–
CCN(CC)S(=O)(=O)c1ccc(N2CCN(c3ccccc3O)CC2)nc1,"inconclusive [activator, single point]",–
CCOc1ccc2c(c1)c1nnc(SCC3CCCO3)nc1n2C (stereo unspecified),"inconclusive [activator, single point]",–
CCOC(=O)C1CCN(S(=O)(=O)c2cc(-c3onc(C)c3C)ccc2C)CC1,"inconclusive [activator, partial curve]",–
CC(=O)Nc1ccc(-c2ccnc3c2CC(C)(C(=O)NCc2ccco2)O3)cc1 (stereo unspecified),"inconclusive [activator, full curve, poor fit]",–
O=C(Nc1ccc(OCC(=O)N2CCC(Cc3ccccc3)CC2)cc1)c1ccco1,"inconclusive [activator, single point]",–
CC1(C(=O)NCC2CCCCC2)CCN1C(=O)Cc1ccc(-c2ccccc2)cc1 (stereo unspecified),active: 20 µM,–
CCC(C)Sc1ccc([C@@H]2[C@@H]3C(=O)N(CC)C(=O)[C@@H]3[C@]3(C(=O)OC)CCCCN23)cc1OC (stereo partly specified),active: 35.5 µM,–
COC(=O)[C@@]12CCCN1[C@H](c1ccc(-c3ccc(OC)cc3)cc1)[C@@H]1C(=O)N(C)C(=O)[C@@H]12,active: 22.4 µM,–

Structure (SMILES),Potency,growth rescue (activation)
CCCCC(=O)N(C)c1c(CC)nc2c(OCC(=O)N3CCOCC3)cccn12,inactive,–
CCCCCCn1cc(C(=O)OCC)c(=O)c2cc(F)c(F)cc21,"inconclusive [activator, single point]",–
O=C(Nc1ccc(C(=O)N2CCN(c3ccc(F)cc3)CC2)cc1)c1nsc2ccccc12,"inconclusive [activator, partial curve]",–
Cc1ccc(-c2cc(NC(=O)c3ccccc3Cl)on2)cc1,–,inconclusive: 38.1% [activator]
COCCCNc1nc2ccccc2nc1NS(=O)(=O)c1ccc(F)cc1,"inconclusive [activator, single point]",–
COc1ccc(/C=N/NC(=O)c2ccccc2OC)cc1COc1ccc(C)cc1,inactive,–
O=C(CN1C(=O)S/C(=C\c2ccc(Cl)cc2)C1=O)NC1C=CS(=O)(=O)C1 (stereo unspecified),"inconclusive [activator, single point]",–
CC(C)c1ccc(O)c(NC(=S)NC(=O)c2cccnc2)c1,inactive,–
COc1cccc(NC(=S)NC2CC(C)CC(C)(C)C2)c1 (stereo unspecified),"inconclusive [activator, full curve, poor fit]",–
O=C(OCc1nc2ccsc2c(=O)[nH]1)c1ccc(Cl)s1,active: 17.8 µM,–
Cc1cc(C)nc(NS(=O)(=O)c2ccc(NC(=O)c3cccs3)cc2)n1,inactive,–
CCN(CC)c1nn2c(=O)c(C(=O)NCCc3ccc(C)cc3)cnc2s1,"inconclusive [activator, partial curve]",–
CCOC(=O)COn1c(=O)c(-c2ccco2)[n+]([O-])c2ccccc21,inactive,–
COCCCNC(=S)Nc1ccc(OC(F)F)cc1C,"inconclusive [activator, partial curve]",–
COc1ccc(OCCCC(=O)Nc2nccs2)cc1,"inconclusive [activator, partial curve]",–
CCOC(=O)c1cnn(-c2ccccc2)c1-n1cccc1C(=O)C(=O)Nc1ccc(OC)cc1,"inconclusive [activator, single point]",–
CCC1CN(C(=O)NCc2cccc(OC)c2)c2cc(Cl)ccc2O1 (stereo unspecified),"inconclusive [activator, partial curve]",–
CCn1cc(C(=O)OC(C)C(=O)Nc2c(C)n(C)n(-c3ccccc3)c2=O)c(=O)c2ccc(C)nc21 (stereo unspecified),"inconclusive [activator, single point]",–
CCOC(=O)c1c(C)[nH]c(C)c1C(=O)CSc1nc(N)cc(=O)[nH]1,"inconclusive [activator, partial curve, poor fit]",–
CC(C)Cn1c(SCC(=O)NC(=O)NC2CCCC2)nc2ccccc21,"inconclusive [activator, single point]",–
CCOc1ccc(S(=O)(=O)NCCc2csc(-c3ccc(Cl)cc3)n2)cc1,active: 22.4 µM,–
O=C(c1ccccc1)c1cc([N+](=O)[O-])ccc1N1CCOCC1,"inconclusive [activator, partial curve]",–
